# In PubChem BioAssay AID463173 (ICCB-Longwood Screening Facility, Harvard Medical School, 2010):
# Screen size: about 52,000 compounds; about 4,300 (8.3%) were called active. Rule as the data show it: active = survival mostly below about 52% (no sharp cut-off); inactive = mostly above about 56%. Some of the results follow.
# System: DeltatarO mutant
# Assay: growth inhibition of S. aureus wild type versus tarO mutant, primary screen, teichoic acid synthesis inhibitors, RN4220, OD600 (AID 463173)
# Conditions: OD600, 18 h, hits give low values, screened at 18.75 µg/mL (by protocol)
row,SMILES,survival
1,CC(=O)c1cccc(NC(=O)Cn2c(-c3cncs3)nc3ccccc32)c1,inactive: 67%
2,Cc1cccc(N2CCN(S(=O)(=O)c3nnc(NC(=O)c4ccc(Cl)cc4)s3)CC2)c1,inactive: 54%
3,COc1ccc(OC)c(NC(=O)c2ccc3nc(C(C)C)oc3c2)c1,inactive: 67%
4,Cc1nc2nc(CNC(=O)c3cccc(F)c3)nn2c(C)c1CCC(=O)Nc1ccc(F)cc1,inactive: 80%
5,Cc1ccc(S(=O)(=O)Cc2csc(N)n2)cc1,inactive: 90%
6,COc1cc2c(cc1OC)C(COc1ccc(F)cc1)N(C(=O)C(C)C)CC2 (stereo unspecified),inactive: 58%
7,O=c1n(Cc2ccccc2)nc2n1-c1ccccc1OC2,inactive: 121%
8,CC(C)c1cnc2c(c1SCc1ccc([N+](=O)[O-])cc1)c(=O)n(C)c(=O)n2C,inactive: 73%
9,CCc1ccccc1N1CC(c2nc3ccccc3n2CCCCOc2ccccc2OC)CC1=O (stereo unspecified),inactive: 80%
10,Cc1noc(Cn2c(=O)c3cc4c(cc3n(CC(=O)Nc3ccc(C(C)C)cc3)c2=O)OCO4)n1,inactive: 67%
11,CC(C)NC(=O)Cc1csc2nc(-c3ccccc3)cn12,inactive: 99%
12,CNS(=O)(=O)c1ccc(NC(=O)c2nc3nc(C)cc(C(F)F)n3n2)cc1,inactive: 132%
13,COc1cccc(-c2cc(C(F)(F)F)n3nc(-c4ccc(C)cc4)cc3n2)c1,inactive: 142%
14,CCN(c1ccccc1)S(=O)(=O)c1ccc(NC(=O)c2cc(=O)c3c(C)cc(C)cc3o2)cc1,inactive: 80%
15,CNC(=O)C1CCC(Cn2c(=O)c3sccc3n(CC(=O)N3CCCCC3C)c2=O)CC1 (stereo unspecified),inactive: 89%
16,Cc1cccc(-c2noc(-c3cccnc3NCc3ccccc3Cl)n2)c1,inactive: 61%
17,O=S(=O)(NCC(c1ccco1)S(=O)(=O)c1ccccc1)c1cc(F)ccc1F (stereo unspecified),inactive: 94%
18,O=C(CCS(=O)(=O)c1ccc(Br)s1)Nc1c(F)cccc1F,inactive: 128%
19,COc1ccc(S(=O)(=O)N(Cc2nc(-c3ccccc3)no2)C2CCCCC2)cc1,inactive: 64%

row,SMILES,survival
1,COc1cccc(N2C(=O)CC(N3CCC(C(N)=O)(N4CCCCC4)CC3)C2=O)c1 (stereo unspecified),inactive: 84%
2,Fc1ccc(Nc2nc(SCc3ccc(Cl)cc3)nc3ccccc23)cc1,inactive: 92%
3,Cc1ccccc1C(=O)NCC(c1ccc(N(C)C)cc1)N1CCCC1 (stereo unspecified),inactive: 102%
4,Cc1ccc(C)c(NC(=O)CSc2nc(-c3ccccc3)c(C#N)c(=O)[nH]2)c1,inactive: 103%
5,Cc1ccc(CNc2nc3ccc(Cl)cc3n3cnnc23)cc1,inactive: 90%
6,COC(=O)c1ccccc1NC(=O)C1=CC(c2ccc3c(c2)OCO3)=NS(=O)(=O)N1C,inactive: 66%
7,COc1ccc(S(=O)(=O)c2c(Nc3c(C)cccc3C)sc(C(=O)c3ccc(F)cc3)c2N)cc1,inactive: 98%
8,CCOc1ccc(CCNC(=O)c2cccc(Nc3nc4ccccc4nc3-n3nc(C)cc3C)c2)cc1OCC,inactive: 98%
9,O=C(CC1N=C2c3ccccc3N=C(SCc3ccc(F)cc3)N2C1=O)NC1CCCCC1 (stereo unspecified),inactive: 124%
10,CCOc1ccc(N(C(=O)c2ccc(Cl)cc2)S(=O)(=O)c2ccc3c(c2)n(C)c(=O)n3C)cc1,active: 37%
11,Cc1cccc(NC(=O)Cn2c(=O)n(Cc3ccccc3)c(=O)c3sc4ccccc4c32)c1,inactive: 141%
12,Cc1ccc(C)c(NC(=O)CN(C)S(=O)(=O)c2cccc3cccnc23)c1,inactive: 85%
13,Cc1ccc(Cl)cc1N1CCN(CCCNC(=O)Cn2ncc3c([nH]c4ccccc43)c2=O)CC1,inactive: 102%
14,Cc1ccc(C(=O)Nc2ccccc2C(=O)OCc2cc(=O)n3nc(C(C)C)sc3n2)cc1,inactive: 78%
15,COc1ccc(CC(=O)NCCS(=O)(=O)N2CCN(c3ccccc3F)CC2)cc1OC,inactive: 95%
16,CCOc1ccccc1NC(=O)C1CCC(CNS(=O)(=O)c2ccc3c(c2)CCCC(=O)N3)CC1 (stereo unspecified),inactive: 78%
17,O=C(c1ccc(Cl)cc1)N1CCCC1,inactive: 76%
18,CCN1CCc2c(sc(NC(=O)c3ccc(S(=O)(=O)N(CCOC)CCOC)cc3)c2C(N)=O)C1,inactive: 69%
19,CN(C)CCNC(=O)c1ccc(-n2c(-c3ccccc3)cc3c2CCCCC3)cc1,inactive: 53%

row,SMILES,survival
1,CCn1c(CSc2ncccn2)nnc1SCC(=O)N1CCCCC1,inactive: 63%
2,CC(NC(=O)CN1C(=O)COc2ccc(S(=O)(=O)N3CCCCCC3)cc21)c1ccccc1 (stereo unspecified),inactive: 68%
3,Cc1ccc(Sc2c(C(=O)NCc3cccc(F)c3)[nH]c3ccccc23)cc1,inactive: 72%
4,CC(C)Oc1ccc(CN2CCc3nc(Nc4ccc5c(c4)OCCO5)ncc3C2)cc1,inactive: 77%
5,Cc1cccc(NC(=O)CSc2ncc(-c3ccc(Br)cc3)[nH]2)c1,inactive: 110%
6,O=C(CSc1ccc(-c2cccs2)nn1)Nc1ccccc1,inactive: 76%
7,Cc1ccc(CN(Cc2ccco2)C(=O)c2ccc(Cl)cc2Cl)cc1,inactive: 53%
8,Cc1cccc(-c2nc(CCNC(=O)COc3ccccc3)cs2)c1,inactive: 94%
9,COc1ccc(CC(=O)N2N=C(c3ccncc3)CC2(O)C(F)(F)F)cc1 (stereo unspecified),inactive: 104%
10,COc1ccc(-c2cc(-c3ccccc3)nc(SCC(=O)Nc3ccccc3C)c2C#N)cc1,active: 56%
11,COc1cccc(CNc2nc3ccccc3c3nc(-c4cccc(C)c4)nn23)c1,active: 31%
12,CC(=O)c1cccc(NC(=O)Nc2c(C)n(C)n(-c3ccccc3)c2=O)c1,inactive: 128%
13,Cc1cccc(N2CCN(C(=O)CN3C(=O)COc4ccc(S(=O)(=O)N5CCC(C)CC5)cc43)CC2)c1C,inactive: 75%
14,COc1ccc(C(=O)Nc2cccc(-c3cn4ccsc4n3)c2)c(OC)c1,inactive: 70%
15,O=S(=O)(Nc1cccc(C(F)(F)F)c1)c1ccc(NS(=O)(=O)c2ccc3c(c2)OCCO3)cc1,active: 6%
16,Cc1ccc(NC(=O)CSc2nc3ccccc3n2CC(=O)N2CCC(C)CC2)cc1C,active: 17%
17,CCc1nn(CC(=O)N2CCC(C)CC2)c(=O)c2cc3occc3n12,inactive: 117%
18,CCCN(c1ccc(C(C)C)cc1)S(=O)(=O)c1ccc2c(c1)n(C)c(=O)c(=O)n2C,inactive: 84%
